# PubChem BioAssay (NCATS)
# Where “and” joins values, the source holds several entries; their conditions need not be identical. Equal values may be shown once. Inconclusive means that the source gave no clear call. Such entries were picked first, then a sample of the others. Potencies beside an inconclusive call are fits to weak or partial responses and may not hold up. Calls of active or inactive are those of the source. Calls come from the whole dose curve; as a rule, active = well fitted curve in the direction sought with a large enough effect; inconclusive = small, poorly fitted or top-dose-only effect, or another doubt; inactive = no such curve, though single readings can be large; an effect the other way counts as inactive or inconclusive.
# Legend:
# [1] = Primary qHTS for inhibitors of nuclear receptor binding SET domain protein 2 (NSD2) in an RCH-ACV wild type WT cells (2C) (AID 1645877); details: activity change, negative = cell killing: at 44.9 µM (top of the series); note: nearly all actives have a fitted effect of over 70% in size
# [2] = Primary fluorescence-based thiol-reactive (MSTI) qHTS assay for identification of artifact compounds. (AID 1845221);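 note: thiol-reactive compounds lower the probe fluorescence signal; nearly all actives have a fitted effect of over 65% in size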
# Procedure, shortened: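 Probe: MSTI 4 uM, PBS pH 7.4, 2% DMSO. Incubation 1 h, RT, light-protected. Readout fluorescence 525/598 nm.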
# CRL-7250 = normal cell line; test: Cytotoxic Profiling of Annotated Libraries Using Quantitative High-Throughput Screening (AID 1296008); details: Five cell lines viability, CellTiter-Glo ATP luminescence, 48-72 h; max response: stronger effect = lower value; note: nearly all actives have a fitted effect of over 60% in size; for max response: % is set by controls: 0 for no effect and ±100 for the full control effect
# Procedure, shortened: (§1)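 Cytotoxicity was measured as CellTiter-Glo ATP luminescence, read after 10 min at room temperature. Compound treatment of the cells lasted 48 or 72 hr at 37 degrees Celsius in a qHTS format.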
# HEK293 = test: as above; details: Five cell lines viability, CellTiter-Glo ATP luminescence, 48-72 h; max response: stronger effect = lower value
# Procedure, shortened: as §1
# KB-3-1 = test: as above; details: Five cell lines viability, CellTiter-Glo ATP luminescence, 48-72 h; max response: stronger effect = lower value
# Procedure, shortened: as §1
# C33A = test: Primary qHTS to identify gynecologic anti-cancer compounds using libraries of approved drugs and bioactive compounds (AID 1345084); details: Gynecologic cancer cell panel viability, ATPlite luminescence, 48 h; series mostly up to 57.5 µM; note: nearly all actives have a fitted effect of over 55% in size; for activity change, negative = cytotoxicity: % is set by controls: 0 for no effect and ±100 for the full control effect
# Procedure, shortened: (§2)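 Cell viability after 48 h drug treatment, ATPlite luminescence readout; five doses.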
# CAOV3 = test: as above; details: Gynecologic cancer cell panel viability, ATPlite luminescence, 48 h; series mostly up to 57.5 µM
# Procedure, shortened: as §2
# Hek293T = test: as above; details: Gynecologic cancer cell panel viability, ATPlite luminescence, 48 h, control line for the selectivity index; series mostly up to 57.5 µM
# Procedure, shortened: as §2
# JEG-3 = test: as above; details: Gynecologic cancer cell panel viability, ATPlite luminescence, 48 h; series mostly up to 57.5 µM
# Procedure, shortened: as §2
# OV90 = test: as above; details: Gynecologic cancer cell panel viability, ATPlite luminescence, 48 h; series mostly up to 57.5 µM
# Procedure, shortened: as §2
# PA-1 = test: as above; details: Gynecologic cancer cell panel viability, ATPlite luminescence, 48 h; series mostly up to 57.5 µM
# Procedure, shortened: as §2
# SKOV3 = test: as above; details: Gynecologic cancer cell panel viability, ATPlite luminescence, 48 h; series mostly up to 57.5 µM
# Procedure, shortened: as §2
# Tov-21-G = test: as above; details: Gynecologic cancer cell panel viability, ATPlite luminescence, 48 h; activity change, negative = cytotoxicity: at 57.5 µM (top of the series)
# Procedure, shortened: as §2
# [3] = Primary qHTS for inhibitors of nuclear receptor binding SET domain protein 2 (NSD2) in an isogenic RCH-ACV NSD2 p.E1099K mutant (9B) (AID 1645876); note: nearly all actives have a fitted effect of over 70% in size
# NIH3T3 = test: Cytotoxic Profiling of Annotated Libraries Using Quantitative High-Throughput Screening (AID 1296008); details: Five cell lines viability, CellTiter-Glo ATP luminescence, 48-72 h; max response: stronger effect = lower value; note: nearly all actives have a fitted effect of over 60% in size; for max response: % is set by controls: 0 for no effect and ±100 for the full control effect
# Procedure, shortened: as §1
# CASKI = test: Primary qHTS to identify gynecologic anti-cancer compounds using libraries of approved drugs and bioactive compounds (AID 1345084); details: Gynecologic cancer cell panel viability, ATPlite luminescence, 48 h; activity change, negative = cytotoxicity: at 57.5 µM (top of the series); note: nearly all actives have a fitted effect of over 55% in size; for activity change, negative = cytotoxicity: % is set by controls: 0 for no effect and ±100 for the full control effect
# Procedure, shortened: as §2
# Es-2 = test: as above; details: Gynecologic cancer cell panel viability, ATPlite luminescence, 48 h; series mostly up to 57.5 µM
# Procedure, shortened: as §2
# Tov112D = test: as above; details: Gynecologic cancer cell panel viability, ATPlite luminescence, 48 h; activity change, negative = cytotoxicity: at 57.5 µM (top of the series)
# Procedure, shortened: as §2
# [4] = P-glycoprotein substrates identified in KB-8-5-11 adenocarcinoma cell line, qHTS therapeutic library screen (AID 1346987); note: nearly all actives have a fitted effect of over 65% in size
# Procedure, shortened: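 Steps: plate 500 KB-8-5-11 cells/well in DMEM + 10% FCS (colchicine removed); pin compounds in dose-response; incubate 72 h, 37 degree C, 5% CO2; add CellTiter-Glo, 5 min; read luminescence.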
# Potency is the fitted concentration of half-maximal effect; tags give direction and shape of the fitted curve.
structure (smiles),measurement,setting,value
COc1ccc(F)c(F)c1C(=O)c1cnc(NC2CCN(S(C)(=O)=O)CC2)nc1N,Potency,[1],active: 325 nM and active: 525 nM
same,Potency,[2],inactive
same,Potency,CRL-7250,active: 2.35 µM and active: 3.66 µM
same,Potency,HEK293,"active: 1.05 µM and inconclusive: 1.46 µM [inhibitor, full curve, poor fit]"
same,Potency,KB-3-1,active: 3.32 µM and active: 4.11 µM
same,Potency,C33A,active: 10 µM
same,Potency,CAOV3,"inconclusive: 20 µM [cytotoxic, partial curve, poor fit]"
same,Potency,Hek293T,active: 3.55 µM
same,Potency,JEG-3,"inconclusive: 1.78 µM [cytotoxic, partial curve, poor fit]"
same,Potency,OV90,"inconclusive: 3.55 µM [cytotoxic, single point]"
same,Potency,PA-1,active: 2.51 µM
same,Potency,SKOV3,"inconclusive: 25.1 µM [cytotoxic, single point]"
same,Potency,Tov-21-G,"inconclusive: 5.62 µM [cytotoxic, full curve, poor fit]"
O=C1CCC(c2ccccc2)(C2CCN(Cc3ccc(I)cc3)CC2)C(=O)N1 (stereo unspecified),Potency,[3],"inconclusive: 23 µM [inhibitor, single point]"
same,Potency,[1],"inconclusive: 23 µM [inhibitor, single point]"
same,Potency,[2],inactive
same,Potency,CRL-7250,"inconclusive: 20.6 µM [inhibitor, single point]"
same,Potency,HEK293,active: 18.4 µM
same,max response,KB-3-1,inactive: -7.17%
same,Potency,NIH3T3,"inconclusive: 29.1 µM [inhibitor, single point]"
same,Potency,C33A,"inconclusive: 25.1 µM [cytotoxic, single point]"
same,Potency,CAOV3,"inconclusive: 39.8 µM [cytotoxic, single point]"
same,Potency,CASKI,"inconclusive: 39.8 µM [cytotoxic, single point]"
same,Potency,Es-2,"inconclusive: 39.8 µM [cytotoxic, single point]"
same,Potency,Hek293T,"inconclusive: 25.1 µM [cytotoxic, single point]"
same,Potency,JEG-3,"inconclusive: 39.8 µM [cytotoxic, single point]"
same,Potency,OV90,"inconclusive: 20 µM [cytotoxic, partial curve]"
same,Potency,PA-1,"inconclusive: 39.8 µM [cytotoxic, single point]"
same,Potency,SKOV3,"inconclusive: 39.8 µM [cytotoxic, single point]"
same,Potency,Tov-21-G,"inconclusive: 35.5 µM [cytotoxic, single point]"
same,Potency,Tov112D,"inconclusive: 39.8 µM [cytotoxic, single point]"
COc1ccccc1-c1c[nH]c2ncc(-c3cncc(C(=O)N(C)C)c3)cc12,Potency,[3],"inconclusive: 3.25 µM [inhibitor, full curve]"
same,Potency,[1],"inconclusive: 2.9 µM [inhibitor, full curve]"
same,Potency,CRL-7250,"inconclusive: 25.9 µM [inhibitor, single point]"
same,Potency,HEK293,"inconclusive: 29.1 µM [inhibitor, single point]"
same,Potency,KB-3-1,"inconclusive: 20.6 µM [inhibitor, single point]"
same,Potency,NIH3T3,"inconclusive: 23.1 µM [inhibitor, single point]"
same,Potency,CAOV3,"inconclusive: 2.24 µM [rising, partial curve, poor fit]"
same,Potency,Hek293T,"inconclusive: 17.8 µM [cytotoxic, single point]"
same,Potency,JEG-3,inactive
same,Potency,PA-1,active: 31.6 µM
same,Potency,SKOV3,"inconclusive: 39.8 µM [cytotoxic, single point]"
same,Potency,Tov-21-G,"inconclusive: 39.8 µM [cytotoxic, single point]"
same,Potency,Tov112D,"inconclusive: 39.8 µM [cytotoxic, single point]"
Oc1cccc(C2NC(=S)Nc3cccc(F)c32)c1 (stereo unspecified),Potency,[4],active: 23.1 µM
same,Potency,CRL-7250,"inconclusive: 5.8 µM [inhibitor, full curve]"
same,Potency,HEK293,active: 5.8 µM
same,Potency,KB-3-1,"inconclusive: 29.1 µM [inhibitor, single point]"
same,Potency,NIH3T3,"inconclusive: 3.26 µM [inhibitor, full curve, poor fit]"
same,Potency,C33A,"inconclusive: 39.8 µM [cytotoxic, single point]"
same,Potency,CAOV3,"inconclusive: 22.4 µM [cytotoxic, single point]"
same,Potency,CASKI,"inconclusive: 39.8 µM [cytotoxic, single point]"
same,Potency,Es-2,"inconclusive: 39.8 µM [cytotoxic, single point]"
same,Potency,Hek293T,"inconclusive: 12.6 µM [cytotoxic, partial curve]"
same,Potency,JEG-3,active: 22.4 µM
same,Potency,OV90,inactive
same,Potency,PA-1,"inconclusive: 31.6 µM [cytotoxic, single point]"
same,Potency,SKOV3,"inconclusive: 3.55 µM [cytotoxic, single point]"
same,Potency,Tov-21-G,"inconclusive: 31.6 µM [cytotoxic, single point]"
CCOc1cc(C(C)(C)C)ccc1C1=NC(C)(c2ccc(Cl)cc2)C(C)(c2ccc(Cl)cc2)N1C(=O)N1CCN(CCCS(C)(=O)=O)CC1 (stereo unspecified),Potency,[4],"inconclusive: 20.6 µM [inhibitor, single point]"
same,Potency,CRL-7250,active: 5.17 µM
same,Potency,HEK293,"inconclusive: 25.9 µM [inhibitor, single point]"
same,Potency,KB-3-1,"inconclusive: 20.6 µM [inhibitor, single point]"
same,Potency,NIH3T3,active: 9.2 µM
same,Potency,CAOV3,"inconclusive: 35.5 µM [cytotoxic, partial curve, poor fit]"
same,Potency,CASKI,"inconclusive: 39.8 µM [cytotoxic, single point]"
same,Potency,OV90,inactive
same,Potency,Tov-21-G,active: 15.8 µM
same,Potency,Tov112D,"inconclusive: 39.8 µM [cytotoxic, single point]"
COc1ccc(N(C)c2nc(C)nc3ccccc23)cc1,Potency,[2],inactive
same,Potency,CRL-7250,active: 0.0103 µM
same,Potency,HEK293,active: 0.0073 µM
same,Potency,KB-3-1,active: 0.0052 µM
same,Potency,NIH3T3,"inconclusive: 0.0046 µM [inhibitor, full curve]"
same,Potency,C33A,inconclusive: 3.55 µM
same,Potency,CAOV3,"inconclusive: 39.8 µM [cytotoxic, single point]"
same,"activity change, negative = cytotoxicity",CASKI,inconclusive: -45.3%
same,Potency,Es-2,inconclusive: 0.0004 µM
same,Potency,Hek293T,inconclusive: 10 µM
same,Potency,JEG-3,inconclusive: 1.78 µM
same,Potency,OV90,inconclusive: 0.501 µM
same,Potency,PA-1,inconclusive: 0.1 µM
same,Potency,SKOV3,"inconclusive: 22.4 µM [cytotoxic, partial curve, poor fit]"
same,Potency,Tov-21-G,inconclusive: 2.82 µM
same,Potency,Tov112D,inconclusive: 0.0447 µM
C#CC(=O)N(c1ccc(OC)cc1OC)C(C(=O)NCC(=O)OCC)c1cccs1 (stereo unspecified),Potency,[1],active: 0.0649 µM
same,Potency,CRL-7250,active: 0.206 µM
same,Potency,HEK293,active: 0.259 µM
same,Potency,KB-3-1,"inconclusive: 29.1 µM [inhibitor, single point]"
same,Potency,NIH3T3,active: 0.164 µM
same,Potency,C33A,active: 5.01 µM
same,Potency,CAOV3,active: 1.78 µM
same,Potency,CASKI,active: 22.4 µM
same,Potency,Hek293T,"inconclusive: 28.2 µM [cytotoxic, single point]"
same,Potency,JEG-3,active: 15.8 µM
same,Potency,OV90,"inconclusive: 39.8 µM [cytotoxic, single point]"
same,Potency,PA-1,active: 1.58 µM
same,Potency,SKOV3,active: 3.16 µM
same,Potency,Tov-21-G,active: 0.398 µM
same,Potency,Tov112D,active: 6.31 µM
COCc1c(Cl)ccc2c1CC[C@H]2c1ncc[nH]1,Potency,[1],inactive
same,Potency,[2],"inconclusive: 33.6 µM [inhibitor, partial curve, poor fit]"
same,Potency,CRL-7250,"inconclusive: 3.66 µM [inhibitor, full curve]"
same,Potency,HEK293,"inconclusive: 20.6 µM [inhibitor, single point]"
same,max response,KB-3-1,inactive: -11.1%
same,Potency,NIH3T3,"inconclusive: 29.1 µM [inhibitor, single point]"
same,Potency,C33A,"inconclusive: 39.8 µM [cytotoxic, single point]"
same,Potency,CAOV3,"inconclusive: 35.5 µM [cytotoxic, single point]"
same,Potency,CASKI,"inconclusive: 39.8 µM [cytotoxic, single point]"
same,Potency,Es-2,"inconclusive: 39.8 µM [cytotoxic, single point]"
same,Potency,Hek293T,"inconclusive: 39.8 µM [cytotoxic, single point]"
same,Potency,JEG-3,"inconclusive: 31.6 µM [cytotoxic, single point]"
same,Potency,PA-1,"inconclusive: 28.2 µM [cytotoxic, single point]"
same,Potency,SKOV3,"inconclusive: 39.8 µM [cytotoxic, partial curve, poor fit]"
same,Potency,Tov-21-G,active: 10 µM
same,Potency,Tov112D,"inconclusive: 39.8 µM [cytotoxic, single point]"
Cc1nnc(C[C@@H]2C=C(c3ccc(Cl)cc3)c3ccccc3-n3c(C)nnc32)o1,Potency,[4],active: 2.59 µM
same,Potency,[3],active: 0.332 µM
same,Potency,CRL-7250,active: 0.651 µM
same,Potency,HEK293,active: 1.16 µM
same,Potency,KB-3-1,"inconclusive: 8.2 µM [inhibitor, partial curve]"
same,Potency,NIH3T3,"inconclusive: 1.3 µM [inhibitor, full curve]"
same,Potency,C33A,"inconclusive: 31.6 µM [cytotoxic, partial curve]"
same,Potency,CAOV3,"inconclusive: 17.8 µM [cytotoxic, partial curve, poor fit]"
same,Potency,Hek293T,"inconclusive: 44.7 µM [cytotoxic, partial curve, poor fit]"
same,Potency,JEG-3,"inconclusive: 22.4 µM [cytotoxic, partial curve, poor fit]"
same,Potency,OV90,active: 20 µM
same,Potency,PA-1,"inconclusive: 22.4 µM [cytotoxic, partial curve, poor fit]"
same,Potency,SKOV3,"inconclusive: 22.4 µM [cytotoxic, partial curve, poor fit]"
same,Potency,Tov-21-G,"inconclusive: 3.16 µM [cytotoxic, partial curve, poor fit]"
same,Potency,Tov112D,"inconclusive: 1.78 µM [cytotoxic, partial curve, poor fit]"
